In the supplement of paper PMC10185492:
This is one part of the list. These are enrichments in a pooled selection; single values are uncertain.

These substances were tested on SARS-CoV-2 3CLpro (nsp5) (assay: substrate phage enrichment score (protease-eluted vs HEPES control, +1 offset) (ratio); higher = better cleaved substrate). Conditions: selection round: 4; protease elution time: 15 min.
Description: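 Random heptapeptide substrate phage display (M13 pIII fusion, heptapeptide between an N-terminal biotinylated AviTag GLNDIFEAQKIEWHE and pIII; phages immobilised on streptavidin) eluted by cleavage with 50 nM protease in 20 mM HEPES at 37 °C. Selected phages were NGS sequenced, and the enrichment score is (reads in protease sample + 1)/(reads in HEPES blank-selection control + 1).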

Substance	substrate phage enrichment score
ACTLSNQ	> 23
SKSGVLR	> 31
HTPGSLN	> 23
VARNCTR	2.71
VQLQARY	> 32
LRSTGGQ	> 23
WYFQGGS	0.75
RNSASVS	2.65
KQETYSH	> 59
VNGYGLW	> 30
RQDAPIT	> 23
EPQASGS	11.8
LNPHSHA	> 53
ENKTLQD	0.222
ESNRTLC	0.256
RYRPAEQ	> 23
PLPLTQH	11
VRPHNIN	1.07
SGIVCLQ	> 25
TETTVRS	0.923
PSTVIPG	2.38
TCTTPMS	3.4
STMSQSS	0.13
GTLRLRQ	> 25
VSAAAHH	0.474

Substance	substrate phage enrichment score
ENDGSAY	0.524
RTNLTLD	> 25
DTEAAHH	1.93
LRTKEKS	2.56
AEAAHHH	0.444
EARTNHR	1.95
QAGTCRT	6.2
SKSSMKC	> 30
AAAHQHH	1.07
RCHLQGG	> 124
TTMQSGI	> 39
VTLQGWQ	> 23
DVGDLSS	> 53
RCHSLIQ	> 58
SNWTVCR	18.5
PCCKFLP	2.71
DERVWTN	4
WNEQKCP	6.75
PSNTVSN	0.333
AREISGD	1.5
TDNRLGM	0.093
TGTVMSP	19.5
GMAAHHH	0.791
RATHTTK	0.397
RPADLKQ	> 29

Substance	substrate phage enrichment score
VVRPHII	0.793
MRKSTDV	> 31
HGRGSPW	3.6
DGTVLQS	25.5
AKVFNRD	2.71
CQLQSAE	> 24
RVREASG	1.88
QTCVPKW	> 30
TTRGSSR	6.33
ACGPVAS	5.12
QYDERTR	> 34
SLTSSTI	2.29
TPSQRCL	7.25
GGSAAAH	0.658
GGTAVKR	1
NPQTPVV	4.6
TERIHMR	1.3
TGTSLQG	10.5
STSRHHV	0.792
THHHHGA	0.941
LCPTKHT	4.6
REQAHLQ	> 26
IRSTGMG	0.261
RQSGQGT	> 32
CRPAISQ	0.0952

Substance	substrate phage enrichment score
CREASAQ	5.35
QLPMLQA	147
RHMTTDS	> 130
PSARENG	1.23
SLEVNRQ	8.33
QHVTSMP	0.333
PIEVTPS	0.0556
SNRSTLQ	> 44
SPSCSTQ	0.966
HPTRPRA	0.417
NRTPYIM	13.8
LKVFSRS	4.88
PCHGNYR	> 110
IQGGSAA	0.75
ALCPRAD	0.705
LTHDPKQ	> 50
GVWVQCH	0.44
YSTLQGG	> 21
SGIPDNR	> 27
EKLNQKM	0.0536
LATDAGW	4
SALVSPR	0.467
PRPSGHP	0.846
GTWRYTK	> 24
RNSRLQA	56

Substance	substrate phage enrichment score
ARTLECD	8.33
STMPDAR	3.44
LGMCTLQ	> 327
PTCRPEH	4
KKTPAAH	> 27
GSTGRLS	0.333
EAPQILQ	7.25
YTASGAP	2.1
PNPFEEN	> 26
VQLPKPR	> 24
LRLRGRG	> 52
CWTGRSN	> 21
NSRDSSG	3
TLELPRG	0.385
PGIHSPQ	4
CCAAAHH	0.833
TGVLQRK	3.55
APESVGT	> 23
KAMQGTT	12.1
RAKTENR	> 24
KSAAHHH	0.895
DCKVLQG	> 23
EKVPRLQ	> 98
WAASMCT	> 29
SDGTQEQ	1.93

Substance	substrate phage enrichment score
KCNTQFQ	> 32
AQEQPAR	> 39
RDAPADG	> 21
EKDQLRQ	0.1
RAPACQD	0.914
AIENPEG	0.667
ASCATPV	2.92
ALRDAPL	> 31
SRTVLQS	> 86
TGSGAAE	0.787
LQGDSQS	3.4
RTNDAPY	2
KAAHHHH	0.686
DINAPET	2.4
ANMPCER	15.5
SGPCKLQ	> 382
EPQWSNP	8.06
NGQNSLT	> 22
RVPAHHH	12.7
NVLEPTE	2.7
VAQLQAR	18.5
ITERDMR	1.22
DNFLEMN	3.17
YCDFVTR	> 25
LDVNHDM	0.35

Substance	substrate phage enrichment score
TESRTDY	2.43
WMAENER	7.67
REQTRAL	5.15
PEVSTTR	> 38
PANVTMR	2.14
WQSSEAP	> 42
KRCGPSS	> 55
CGSAAAH	0.382
GQGGSAA	4.2
VESSKLQ	> 84
QTQIGCP	> 25
NQFTTGQ	4.33
LSSEQLL	0.588
CNHRELL	0.12
TQLHLGR	> 29
MKPTVPE	> 36
KPKPCLH	3
KKGDYPS	> 142
SAAPQQH	1.13
TRMNYGQ	4.5
LDESWVH	1.48
SEVMRFR	4.73
VKLRNPN	0.972
RSCKEQT	> 59
TTLPQTG	12.3

Substance	substrate phage enrichment score
CSKSRRV	0.0833
QTSRWPT	9
RACGNRS	3.12
YSRLQAS	> 47
QNQESSR	1.75
TGSGGRS	> 44
VELQSDR	> 31
RLSEMPN	0.913
LNVSELK	1.15
QIGPITR	> 21
THTGKCM	0.833
ARGELGY	1.36
AYDSEFS	0.917
YGNQGLN	2.33
GIAAAHH	1.17
TYGHNEL	> 30
HYENMIN	2
DCGAQVR	> 29
LCEQQML	1.46
QYPPARL	0.0909
EPSAKPY	0.692
TNKFLWQ	> 81
CLHVNSP	0.412
ANLYPRY	1.64
MPLPQGR	> 24

Substance	substrate phage enrichment score
CVSQPNR	> 36
AHQNERM	> 35
TVGGLIC	> 25
TETRFRE	> 47
AAAQHHH	1.09
CAAAQQK	2.14
PKEPPFS	> 27
EQHPARI	0.438
GATDMPH	5.14
QDTLEED	14.7
RVPAKLQ	> 52
ECDARSI	> 29
HTDYVTE	5.03
RRRCSLM	302
CRLSTRD	3.85
SYSPFSE	10
GRHKSHV	> 21
VRPHNNI	1
NRHLARP	> 30
LPCSNLR	1.12
SAAPQHQ	2.62
CKAAHHH	1.05
DEQGVQT	0.407
CRTVETR	> 25
YRGGSNH	0.556

Substance	substrate phage enrichment score
ALSPPGP	> 48
CAPRMTG	> 22
ANQQNGR	7.6
AGDGSVY	5.8
AHHAGQR	0.667
TPCQASG	0.81
AFDKFRQ	> 23
NAQENAA	> 122
HPMWAPG	> 32
CASYNSS	7
TQQYCQG	0.6
HIKQNKP	> 22
RTSTQFR	1.08
YPQTRLQ	> 108
RAAELIS	5
AADLNNR	1.7
SAAAHQH	1.3
PKMYIPG	> 25
PPVNKNG	0.667
TQLISND	20.5
GGAAAHH	0.675
KATKPRP	18.3
QCFQGGS	6
QQYFQGG	0.467
GTTRLQA	> 1080

Substance	substrate phage enrichment score
AAAHHNH	1.6
YASSSGR	1.75
PGNAFTD	> 29
DQQLPTQ	0.121
HPVNNFS	10.4
HGGSAAA	2.14
CKWHEGM	> 31
ECDWAMP	> 29
EAPATTH	1.56
ELSGRKH	0.694
QASRKSD	> 22
DETQNRQ	0.16
TARLQSA	> 67
RKQTRLQ	> 301
LQEIPLR	> 33
LTRGTDY	> 31
RPLCKMG	13.5
SSPQKWP	1.46
ANREGLI	1.15
SSLTGIG	13.7
RQPVGIP	22
HAASRTR	> 21
SGVPSAR	27.2
DTLSELQ	> 50
SGTCVLH	> 94

Substance	substrate phage enrichment score
ARPSQLM	> 21
HSPEPVH	0.739
GTGYQPH	0.833
AQSHVYG	> 27
RQESVDP	19.5
PCTYFGT	> 27
GPRNTLR	8.67
ARLQSGS	> 117
ATTSGGS	0.273
PPGRATC	1.14
FQRCPDT	> 21
VVKTGVH	> 88
CTENRTR	0.4
LIDSAQR	> 53
CGAAHHH	0.468
QTAAHHH	0.448
RQDSRFG	> 45
AAQTFPA	0.224
LKDNSQQ	> 26
QNGTRVS	> 24
SDCVRSG	2
GSPAAHH	0.385
PQGMQRW	> 30
LTGALLQ	6.33
QQTTKRG	0.737

Substance	substrate phage enrichment score
NRCSQRW	> 23
LNVNSPR	5.2
QTCLQGG	> 35
NDLNAVK	7.43
AVDQPKQ	2.21
HRCKAGF	2.06
SAAEHHH	0.947
ETHGPFG	> 231
YGPRTGM	6.33
WNHRDTR	12.5
LGPGTAG	0.379
PTQPTAQ	> 22
TAAHHHH	0.82
FCVICDR	> 33
STSRLQS	29
LYFRGGS	0.905
HKIYDGQ	> 21
SPEHEIR	0.696
ASTTKLT	11.5
GRCPTTP	14.5
THLAYPW	0.433
SDTARGS	> 45
ARNFEHR	2.67
HPGWGAM	> 23
NGAAHHH	1.09

Substance	substrate phage enrichment score
SILECRG	> 41
ETGILQS	> 30
GCRNKNV	2.86
RQTYIYG	817
QYRSTDT	0.467
TAAAHHH	0.724
NPGYRMS	1.07
HTAAHHH	1.51
KHHCLIR	> 44
TSALCKG	> 22
QYGSVHQ	7.4
TRWCSIA	> 22
APCTQNF	> 27
SSSSELN	> 22
VANLQAG	> 504
SSLQSSK	> 21
RNDHLTE	0.647
RADAILQ	> 106
LDSAAAK	> 53
VGSSYVR	4.4
TSLTPRQ	5.58
RDTRPVF	> 31
SLGVQLR	> 22
VNRTKPR	14.5
PQAHAKE	5.75

Substance	substrate phage enrichment score
KSKEYYS	0.409
SSYGNKS	> 30
VTNLKAN	6.25
RQEQRYY	1.24
NRGAKLQ	39.5
AENRLKV	5.25
ANGSTYR	4.75
SRMVHVT	> 22
SPKNHMQ	> 40
QAGKWTC	2.43
NHCTWAH	1.56
KQKCTNP	0.4
SPGSKTL	17.5
IKLQSYD	> 80
LNPHLQS	> 43
QSWGISQ	> 49
PSYWRGQ	> 23
